Results reported in patent US11161864B2, “Sting agonists” (Venenum Biodesign, LLC, priority 2018, dated 2021).

Assays:
[1] = tested on: STING pathway, RAW-Dual Reporter cell line; test: cells
[2] = target: HAQ STING protein, THP1 Dual (HAQ) human cells (Homo sapiens (Human), UniProt Q86WV6, G230A/H232R/R293Q/R71H); test: cell-based; details: for EC50: Human HAQ Agonist EC50, 5 hrs; for Emax: THP1-Dual, 5 h, read-out: Human HAQ Agonist Efficacy, 5 hrs
[3] = target: wildtype (WT) STING protein, THP1 Dual (WT) human cells (Homo sapiens (Human), UniProt Q86WV6, H232R); test: cell-based; details: for EC50: Human WT Agonist EC50, 5 hrs
[4] = Mus musculus, 5 h, read-out: Murine Agonist EC50, 5 hrs
[5] = read-out: Murine Agonist EC50, 5 hrs

wildtype (WT) STING protein, THP1 Dual (WT) human cells, sequence (Q86WV6 whole entry H232R): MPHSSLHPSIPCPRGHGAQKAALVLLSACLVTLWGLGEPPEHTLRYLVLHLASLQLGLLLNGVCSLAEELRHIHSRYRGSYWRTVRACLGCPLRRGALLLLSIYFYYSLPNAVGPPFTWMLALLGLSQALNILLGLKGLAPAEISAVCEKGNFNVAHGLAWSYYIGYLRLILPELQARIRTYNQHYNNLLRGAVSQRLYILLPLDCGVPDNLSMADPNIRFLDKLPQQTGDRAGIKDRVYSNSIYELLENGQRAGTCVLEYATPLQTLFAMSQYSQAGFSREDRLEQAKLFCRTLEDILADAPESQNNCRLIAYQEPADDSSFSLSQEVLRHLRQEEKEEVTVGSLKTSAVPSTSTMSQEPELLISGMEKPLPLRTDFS
HAQ STING protein, THP1 Dual (HAQ) human cells, sequence (Q86WV6 whole entry R71H/G230A/H232R/R293Q): as the sequence (Q86WV6 whole entry H232R) above, with R71H, G230A, R293Q counted along it

Compound	EC50 [1, 4] [µM]	EC50 [1, 5] [µM]	other results
Nc1nc2c(nc3n2CCOP(=O)(S)OC[C@H]2O[C@@H](n4cnc5c(N)ncnc54)[C@H](OP(=O)(S)OC3)[C@@H]2F)c(=O)[nH]1 (single isomer, unassigned) [Example 23D]	10 to 99.9	–	–
Nc1ncnc2c1ncn2[C@@H]1O[C@@H]2COP(=O)(S)OCCn3c(nc4cncnc43)COP(=O)(S)O[C@@H]1[C@@H]2O (stereo partly drawn) [Example 8, (1R,21R,23R,24R)-23-(6-Amino-9H-purin-9-yl)-24-hydroxy-3,18-disulfanyl-2,4,17,19,22-pentaoxa-7,10,12,14-tetraaza-3lambda5,18lambda5-diphosphatetracyclo[19.2.1.06,14.08,13]tetracosa-6,8(13),9,11-tetraene-3,18-dione]	100 to 999	–	Emax ([1]; Mus musculus, 5 h, read-out: Murine Agonist Efficacy, 5 hrs): < 100%; EC50 [2]: 10 to 99.9 µM; Emax [2]: < 100%; EC50 [3]: 100 to 999 µM; Emax ([3]; THP1-Dual, 5 h, read-out: Human WT Agonist Efficacy, 5 hrs): < 100%
Nc1nc2c(ncn2[C@@H]2O[C@@H]3COP(=O)(S)OCCn4nc(-c5ccncc5)nc4COP(=O)(S)O[C@@H]2[C@@H]3F)c(=O)[nH]1 (single isomer, unassigned) [Example 34C]	–	< 10	–
C[C@H]1Cn2c(nc3cncnc32)COP(=O)(S)O[C@@H]2[C@H](F)[C@@H](COP(=O)(S)O1)O[C@H]2n1cnc2c(=O)[nH]c(N)nc21 (single isomer, unassigned) [Example 33D]	–	< 10	Murine Agonist Efficacy ([1]; 5 hrs): <100%
Nc1nc2c(ncn2[C@@H]2O[C@@H]3COP(=O)(S)OCCn4c(nc5cnc(C6CC6)nc54)COP(=O)(S)O[C@@H]2[C@@H]3F)c(=O)[nH]1 (single isomer, unassigned) [Example 12D]	–	10 to 99.9	–
Nc1nc2c(ncn2[C@@H]2O[C@@H]3COP(=O)(O)OCCCn4c(nc5cncnc54)COP(=O)(O)O[C@@H]2[C@@H]3O)c(=O)[nH]1 [Example 2, (1R,22R,24R,25R)-24-(2-Amino-6-oxo-6,9-dihydro-1H-purin-9-yl)-3,19,25-trihydroxy-2,4,18,20,23-pentaoxa-710,122,14-tetraaza-3lambda5,19lambda5-diphosphatetracyclo[20.2.1.06,14.08,13]pentacosa-6,8(13),9,11-tetraene-3,19-dione]	–	–	EC50 [2]: 100 to 999 µM; Emax [2]: > 100%
Nc1nc2c(ncn2[C@@H]2O[C@@H]3COP(=O)(S)OCCn4c(nc5c(=O)[nH]cnc54)COP(=O)(S)O[C@@H]2[C@@H]3F)c(=O)[nH]1 (single isomer, unassigned) [Example 3D]	–	10 to 99.9	–
Nc1nc2c(ncn2[C@@H]2O[C@@H]3COP(=O)(S)OCCn4c(nc5c(=O)[nH]cnc54)COP(=O)(S)O[C@@H]2[C@@H]3F)c(=O)[nH]1 (single isomer, unassigned) [Example 3C]	–	< 10	–
C[C@H]1Cn2c(nc3cncnc32)COP(=O)(S)O[C@@H]2[C@H](F)[C@@H](COP(=O)(S)O1)O[C@H]2n1cnc2c(=O)[nH]c(N)nc21 (single isomer, unassigned) [Example 33B]	–	100 to 999	Murine Agonist Efficacy ([1]; 5 hrs): <100%
C[C@H]1Cn2c(nc3cncnc32)COP(=O)(S)O[C@@H]2[C@H](F)[C@@H](COP(=O)(S)O1)O[C@H]2n1cnc2c(=O)[nH]c(N)nc21 (single isomer, unassigned) [Example 33C]	–	100 to 999	Murine Agonist Efficacy ([1]; 5 hrs): <100%
Nc1nc2c(ncn2[C@@H]2O[C@@H]3COP(=O)(S)OCCn4nc(-c5cncs5)nc4COP(=O)(S)O[C@@H]2[C@@H]3F)c(=O)[nH]1 (single isomer, unassigned) [Example 16A]	< 10	–	–
Nc1nc2c(ncn2[C@@H]2O[C@@H]3COP(=S)(S)OCCn4c(nc5cncnc54)COP(=O)(S)O[C@@H]2[C@@H]3F)c(=O)[nH]1 (stereo partly drawn) [Example 39, (1S,21R,23R,24R)-23-(2-Amino-6-oxo-6,9-dihydro-1H-purin-9-yl)-24-fluoro-3,18-disulfanyl-18-sulfanylidene-2,4,17,19,22-pentaoxa-7,10,12,14-tetraaza-3lambda5,18lambda5-diphosphatetracyclo[19.2.1.06,14.08,13]tetracosa-6,8(13),9,11-tetraen-3-one]	< 10	–	Emax ([1]; Mus musculus, 5 h, read-out: Murine Agonist Efficacy): > 100%
Nc1nc2c(ncn2[C@@H]2O[C@@H]3COP(=O)(S)OCCn4nc(-c5ccncc5)nc4COP(=O)(S)O[C@@H]2[C@@H]3F)c(=O)[nH]1 (single isomer, unassigned) [Example 34D]	–	10 to 99.9	–

Further lines, with some results ahead:

EC50 [1, 4] [µM]	EC50 [1, 5] [µM]	Compound	other results
< 10	–	Nc1nc2c(ncn2[C@@H]2O[C@@H]3COP(=O)(S)OCCn4c(nc5cnccc54)COP(=O)(S)O[C@@H]2[C@@H]3F)c(=O)[nH]1 (single isomer, unassigned) [Example 17C]	EC50 [2]: < 10 µM; EC50 [3]: 10 to 99.9 µM
–	< 10	Nc1nc2c(ncn2[C@@H]2O[C@@H]3COP(=O)(S)OCCn4c(nc5cncnc54)COP(=O)(O)O[C@@H]2[C@@H]3F)c(=O)[nH]1 (single isomer, unassigned) [Example 6B]	–
< 10	–	Nc1nc2c(nnn2[C@@H]2O[C@@H]3COP(=O)(S)OCCn4c(nc5cncnc54)COP(=O)(S)O[C@@H]2[C@@H]3F)c(=O)[nH]1 (single isomer, unassigned) [Example 24A]	–
< 10	–	Nc1nc2c(ncn2[C@@H]2O[C@@H]3COP(=O)(S)OCCn4c(nc5cncnc54)COP(=O)(S)O[C@@H]2[C@@H]3O)c(=O)[nH]1 (mixture of isomers) [Example 15A, (1R,21R,23R,24R)-23-(2-Amino-6-oxo-6,9-dihydro-1H-purin-9-yl)-24-hydroxy-3,18-disulfanyl-2,4,17,19,22-pentaoxa-7,10,12,14-tetraaza-3lambda5,18lambda5-diphosphatetracyclo[19.2.1.06,14.08,13]tetracosa-6,8,10,12-tetraene-3,18-dione]	–
< 10	–	Nc1nc2c(ncn2[C@@H]2O[C@@H]3COP(=O)(O)OCCn4c(nc5cncnc54)COP(=O)(S)O[C@@H]2[C@@H]3F)c(=O)[nH]1 (single isomer, unassigned) [Example 5A]	–
10 to 99.9	–	Nc1nc2c(ncn2[C@@H]2O[C@@H]3COP(=O)(S)OCCn4c(nc5cncnc54)COP(=O)(S)O[C@@H]2C3)c(=O)[nH]1 (single isomer, unassigned) [Example 22A]	–
–	10 to 99.9	Nc1nc2c(ncn2[C@@H]2O[C@@H]3COP(=O)(O)OCCn4c(nc5cncnc54)COP(=O)(S)O[C@@H]2[C@@H]3F)c(=O)[nH]1 (single isomer, unassigned) [Example 5B]	–
10 to 99.9	–	Nc1nc2c(ncn2[C@@H]2O[C@@H]3COP(=O)(S)OCCn4c(nc5cncnc54)COP(=O)(O)O[C@@H]2[C@@H]3F)c(=O)[nH]1 (single isomer, unassigned) [Example 6A]	–
10 to 99.9	–	Nc1nc2c(ncn2[C@@H]2O[C@@H]3COP(=O)(S)OCCn4c(nc5cncnc54)COP(=O)(S)O[C@@H]2[C@@H]3O)c(=O)[nH]1 (single isomer, unassigned) [Example 15C]	–
–	100 to 999	Nc1nc2c(ncn2[C@@H]2O[C@@H]3COP(=O)(S)OCC(F)(F)Cn4c(nc5cncnc54)COP(=O)(S)O[C@@H]2[C@@H]3F)c(=O)[nH]1 (single isomer, unassigned) [Example 19A]	–
–	< 10	Nc1nc2c(ncn2[C@@H]2O[C@@H]3COP(=O)(S)OCCn4c(nc5cncnc54)COP(=O)(S)O[C@@H]2[C@@H]3O)c(=O)[nH]1 (single isomer, unassigned) [Example 15D]	–
< 10	–	Nc1nc2c(ncn2[C@@H]2O[C@@H]3COP(=O)(S)OCCn4c(nc5cc(Cl)cnc54)COP(=O)(S)O[C@@H]2[C@@H]3F)c(=O)[nH]1 (single isomer, unassigned) [Example 14A]	–

Like-named read-outs stand apart in the source and are kept apart here.
